In PubChem BioAssay (NCATS):
Where “and” joins values, the source holds several entries; their conditions need not be identical. Identical values can stand only once. The list shows a part of the results. These are further read-outs of the screen, such as a control signal, another cell line or another target. No call is given for them. Compounds called inactive in the main read-out are mostly missing here. Words in brackets tell the shape of the fitted curve; partial curves, single points and poor fits give uncertain potencies.

Assay: qHTS Assay for Lipid Storage Modulators (AID 1519)
Details: Drosophila S3 cells, BODIPY lipid droplet/cell ratio, laser cytometry, cells loaded with oleic acid
Outline: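 Cells seeded at 5,000 per well were treated with compounds over a concentration series and loaded with oleic acid (400 uM, as added). Lipid droplet fluorescence (488 nm excitation, 500-530 nm channel) was read by laser-scanning cytometry and normalized to 20 uM Triacsin C.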

[1] = measured here: cell count channel max response
[2] = measured here: cell number channel AC50
[3] = measured here: lipid (BODIPY) channel AC50
[4] = measured here: lipid channel max response
Tags give direction and shape of the fitted curve.

Row | Compound | max response [1] | AC50 [2] | AC50 [3] | max response [4]
1 | COCCn1c(=O)c(C)nc2cncnc21 | 42.6% | 11.2 µM [rising, partial curve, poor fit] | 10 µM [rising, partial curve] | 54.1%
2 | CS(=O)(=O)N1CCC2(CCCN(Cc3cc(C(F)(F)F)cc(C(F)(F)F)c3)C2)CC1 | 16.9% | 5.01 µM [rising, single point] | 3.98 µM [rising, single point] | -5.41%
3 | Cc1cnc(CNc2nc(-c3ccccc3C(F)(F)F)nc3ccccc23)cn1 | 34.5% | 1.41 µM [rising, full curve] | 1 µM [rising, full curve] | 44.5%
4 | COc1ccc(-n2c(=O)c(-c3ccc(F)cc3)nc3cncnc32)cc1 | 42.8% | 8.91 µM [rising, partial curve] | 3.55 µM [rising, partial curve] | 46.9%
5 | O=C(c1cc(C(F)(F)F)cc(C(F)(F)F)c1)N1CCC2(CC1)CN(c1ncccn1)C2 | 30.1% | 25.1 µM [rising, partial curve, poor fit] | 0.0158 µM [rising, full curve, poor fit] | 39.4%
6 | Clc1ccc2nc(-c3ccccc3)[nH]c2c1 | 87.1% | 1.78 µM [rising, full curve] | 1.58 µM [rising, full curve] | 97.1%
7 | O=c1cnc2cnc(Oc3ccccc3)nc2n1C[C@H]1CCCO1 | 24% | 0.00501 µM [rising, full curve, poor fit] | 0.00562 µM [rising, full curve, poor fit] | 30.4%
8 | COc1ccccc1CNc1ccnc(-c2ccccc2Cl)n1 | 33.3% | 3.16 µM [rising, full curve, poor fit] | 3.16 µM [rising, full curve, poor fit] | 42.1%
9 | COc1cccc(-c2nc(NCc3cnc(C)cn3)c3ccccc3n2)c1 | 27.7% | 0.501 µM [rising, partial curve, poor fit] | 2.24 µM [rising, full curve] | 40.3%
10 | N[C@H](C(=O)O)[C@@H]1[C@@H](C(=O)O)C1(F)F | 40.5% | 14.1 µM [rising, full curve, poor fit] | 15.8 µM [rising, full curve, poor fit] | 53.8%
11 | COc1ccc(-c2cc(=O)c3c(O)cc(O)cc3o2)cc1 | -29.8% and 59.9% | 17.8 µM [rising, partial curve, poor fit] | 15.8 µM [falling, single point] and 15.8 µM [rising, full curve] | -39.2% and 67.6%
12 | O=C(c1cc(C(F)(F)F)cc(C(F)(F)F)c1)N1CCC2(CCCN(Cc3ccncc3)C2)CC1 | 13.6% | 7.08 µM [rising, single point] | 7.08 µM [rising, partial curve] | 23.6%
13 | COc1ccccc1CCn1c(=O)c(-c2ccccc2)nc2cncnc21 | 12.3% | 1.41 µM [rising, partial curve] | 0.0398 µM [rising, full curve, poor fit] | 24.5%
14 | COc1cc2c(cc1OC)C(=O)Cc1ccc3c(c1CN(C)CC2)OCO3 | 78.6% | 14.1 µM [rising, partial curve, poor fit] | 14.1 µM [rising, partial curve] | 99.9%
15 | COc1ccc(-n2c(=O)c(-c3ccc(Cl)cc3)nc3cncnc32)cc1 | 20.4% | 1.78 µM [rising, partial curve] | 0.224 µM [rising, full curve] | 31.8%
16 | CN(C)c1ncc2nc(-c3cccs3)c(=O)n(-c3ccccc3)c2n1 | 99% | 15.8 µM [rising, partial curve] | 39.8 µM [falling, single point] | -60.5%
17 | CC(C)=CCCC(C)CCO (configuration not stated) | 64% | 39.8 µM [rising, single point] | 39.8 µM [rising, single point] | 73.2%
18 | COc1ccc(-n2c(=O)c(C)nc3cnc(Oc4cccc(Cl)c4)nc32)cc1 | 38.3% | 0.2 µM [rising, full curve, poor fit] | 0.0794 µM [rising, full curve, poor fit] | 53.5%
19 | C/C(=C\COc1cc(=O)[nH]c2ccccc12)CCC(O)C(C)(C)O (configuration not stated) | 98.3% | 11.2 µM [rising, partial curve] | 10 µM [rising, partial curve] | 122%

Row | Compound | max response [1] | AC50 [2] | AC50 [3] | max response [4]
20 | COc1ccccc1CNc1nc(-c2ccc(N(C)C)cc2)nc2ccccc12 | -65.7% | 39.8 µM [falling, single point] | 39.8 µM [falling, single point] | -72.6%
21 | Cc1onc(-c2c(Cl)cccc2Cl)c1C(=O)NC1C(=O)N2C1SC(C)(C)C2C(=O)O (configuration not stated) | 46.8% | 20 µM [rising, partial curve] | 35.5 µM [rising, single point] | 83.6%
22 | O=C(OCCN1CCOCC1)C1(c2ccccc2)CCCCC1 | 70.3% and -10.5% | 7.08 µM [falling, full curve, poor fit] | 7.08 µM [falling, full curve, poor fit] | 83.5% and -9.08%
23 | CNc1nc(-c2ccc(C(=O)N(C)C)cc2)nc2ccccc12 | 28.7% | 0.398 µM [rising, full curve, poor fit] | 0.355 µM [rising, full curve, poor fit] | 35%
24 | COCCn1c(=O)c(-c2ccc(OC)cc2)nc2cnc(Nc3ccccc3)nc21 | 20.2% | 1.12 µM [rising, partial curve] | 0.0708 µM [rising, full curve] | 31.1%
25 | COc1ncc2nc(-c3ccccc3)c(=O)n(C3CC3)c2n1 | 14.1% | 3.16 µM [rising, single point] | 2.51 µM [rising, partial curve, poor fit] | 21.6%
26 | CCCN(CCC)C(=O)C(CCC(=O)O)NC(=O)c1ccccc1 (configuration not stated) | 33.3% | 7.08 µM [falling, full curve, poor fit] | 6.31 µM [falling, full curve, poor fit] | 35.1%
27 | CC12CCC3c4ccc(O)cc4CCC3C1CCC2=O (configuration not stated) | 48.7% | 28.2 µM [rising, partial curve, poor fit] | 35.5 µM [rising, partial curve, poor fit] | 59.1%
28 | C[N+](C)(C)CCOC(N)=O | 32.6% and 3.57% | 25.1 µM [rising, single point] and 7.94 µM [falling, full curve, poor fit] | 35.5 µM [rising, single point] | 47.7% and 7.52%
29 | CC(=O)N1CCC2(CC1)CCN(c1ccccn1)CC2 | 32.9% | 0.794 µM [rising, full curve, poor fit] | 0.708 µM [rising, full curve, poor fit] | 42.5%
30 | c1ccc(CNc2nc(-c3ccc4c(c3)OCO4)nc3ccccc23)cc1 | 18.6% | 0.00794 µM [rising, full curve, poor fit] | 0.00891 µM [rising, full curve, poor fit] | 20.2%
31 | COc1ccc(-c2coc3cc(OC)cc(OC)c3c2=O)cc1 | 32.1% | 2.24 µM [rising, full curve, poor fit] | 1.12 µM [rising, full curve, poor fit] | 44.9%
32 | CN(C)CCCCSC(=N)N | -32.3% and 27% | 0.0316 µM [falling, full curve, poor fit] | 0.0398 µM [falling, full curve, poor fit] | -35% and 25.7%
33 | COc1cccc(Cn2c(=O)c(-c3cn(C)c4ccccc34)nc3cnc(N4CCOCC4)nc32)c1 | 38.3% | 10 µM [rising, partial curve] | 11.2 µM [rising, partial curve] | 42.1%
34 | COC1/C=C/OC2(C)Oc3c(C)c(O)c4c(O)c(c(/C=N/N5CCN(C)CC5)c(O)c4c3C2=O)NC(=O)/C(C)=C/C=C/C(C)C(O)C(C)C(O)C(C)C(OC(C)=O)C1C (configuration not stated) | 37.3% | 7.08 µM [rising, full curve, poor fit] | 6.31 µM [rising, full curve, poor fit] | 43.2%
35 | Cn1c(-c2nc(-c3ccccc3)cs2)nc2ccccc21 | 53.7% | 1.26 µM [rising, full curve] | 0.282 µM [rising, full curve] | 67.2%
36 | N#Cc1cccc(NC(=O)N2CC[C@@]3(CCCN(C(=O)c4csnn4)C3)C2)c1 | 27.1% | 0.398 µM [rising, partial curve, poor fit] | 1 µM [rising, partial curve, poor fit] | 34%
37 | NC(Cc1cc(I)c(Oc2ccc(O)c(I)c2)c(I)c1)C(=O)O (configuration not stated) | 41.1% | 15.8 µM [rising, partial curve] | 25.1 µM [rising, partial curve] | 73%
38 | N#CCCn1c(=O)c(-c2ccccc2)nc2cnc(OCc3ccccc3)nc21 | 7.84% | 0.316 µM [rising, partial curve, poor fit] | 0.251 µM [rising, partial curve, poor fit] | 11.6%
